Some of the results follow. At the low end of the ranking the order means little.

For the assay, the target named is SIX1-Q177R homeodomain (UniProt Q15475). Nature of the assay: universal protein binding microarray. Conditions: Universal all-10-mer PBM (8x60K, AMADID 030236), 300 nM GST-tagged protein, Alexa Fluor 488 anti-GST; buffer, salt, pH and temperature not stated; high values mean tight binding; most listed sequences are background and not binding sites; double strand, one strand shown.
With CTGGCCAC, the binding signal is -0.155 E-score.

Consider AGTGAGGA, for which the binding signal was -0.0771 E-score.

Regarding ATCGGGGC, the binding signal was -0.0994 E-score.

As for ACTAAAGG, the binding signal is -0.132 E-score.

Consider CCGCGCGC, for which the binding signal is -0.105 E-score.

Turning to CTCAAGTA, the binding signal is -0.0444 E-score.

TACTTGAA: the binding signal was -0.0217 E-score.

For TATGCGGA, the binding signal was 0.00752 E-score.

Consider ACTCGATG, for which the binding signal amounted to 0.0884 E-score.

Consider CGTCGGCC, for which the binding signal was -0.306 E-score.

As for GTGTAGCA, the binding signal was found to be 0.425 E-score.

As for ATAAGTAC, the binding signal came out at 0.0942 E-score.

Take ATTAATTG: the binding signal is -0.319 E-score.

AGGGCCAT: the binding signal was -0.29 E-score.

As for AGGAACCT, the binding signal is 0.021 E-score.

In the case of CACTGCCG, the binding signal turned out to be 0.26 E-score.

For the sequence CAGTATAA, the binding signal is -0.169 E-score.

GCGGACCC: the binding signal turned out to be 0.0865 E-score.

For the sequence AACGGACT, the binding signal is -0.196 E-score.

For CGTTGCGC, the binding signal was -0.214 E-score.

As for ATCTCCGG, the binding signal is -0.164 E-score.

As for ATATGTGC, the binding signal is -0.163 E-score.

AGGAAAGG: the binding signal is -0.0484 E-score.

For the sequence GGACTGCA, the binding signal was -0.279 E-score.

Regarding AAAGTCTA, the binding signal was -0.328 E-score.

Consider AATAAGGG, for which the binding signal is -0.127 E-score.

In the case of AATCTGTG, the binding signal was -0.0357 E-score.

Turning to ATCCGGAT, the binding signal was determined as 0.124 E-score.

For CAATTAAC, the binding signal stood at 0.0192 E-score.

Regarding CAAGTGGA, the binding signal came out at 0.147 E-score.

As to CAGCAGAA, the binding signal is -0.159 E-score.

Turning to CGGAACGC, the binding signal was determined as 0.0933 E-score.

Consider GTAGCGCA, for which the binding signal is -0.141 E-score.

In the case of ATTTGTAG, the binding signal is -0.0612 E-score.

Consider ACGGCGGG, for which the binding signal came out at 0.0578 E-score.

For the sequence CACCAGTG, the binding signal came to 0.404 E-score.

Regarding ATCGAGAG, the binding signal was -0.0311 E-score.

For the sequence CAATTTTA, the binding signal was -0.273 E-score.

Turning to ACAAGTGG, the binding signal was -0.115 E-score.

ACCGGTCT: the binding signal was -0.0683 E-score.

For the sequence ACAAGTGT, the binding signal was determined as 0.344 E-score.

On to AATCACTC, for which the binding signal is -0.171 E-score.

As for CATGTGAC, the binding signal is -0.126 E-score.

Turning to CAAACAAA, the binding signal was -0.0492 E-score.

Consider GCTTTGGA, for which the binding signal was -0.158 E-score.

Take ACATTTGC: the binding signal is -0.0692 E-score.

AGGCTGCA: the binding signal is -0.185 E-score.

In the case of ACGCCAGC, the binding signal turned out to be 0.0892 E-score.

With AAAGTGCA, the binding signal is -0.176 E-score.

In the case of AGCTCCCC, the binding signal is -0.0482 E-score.

Take GTACAGTA: the binding signal came out at 0.0011 E-score.

With TTCAGAAA, the binding signal is -0.0546 E-score.

Regarding ACGCGCTC, the binding signal is -0.0372 E-score.

Take ATCGGAAA: the binding signal is -0.134 E-score.

For the sequence GGCGACCC, the binding signal is 0.0912 E-score.

Turning to CACGTACA, the binding signal came out at 0.355 E-score.

As to CTTAACTC, the binding signal was 0.0522 E-score.

On to GATGGGCA, for which the binding signal was -0.0234 E-score.

Turning to CATACACC, the binding signal amounted to 0.462 E-score.

Regarding AAGGTAAG, the binding signal is -0.0794 E-score.

Take ACGGAATC: the binding signal turned out to be 0.0758 E-score.

For the sequence GCCAGCGA, the binding signal is -0.0741 E-score.

With AGATGGAC, the binding signal amounted to 0.0131 E-score.

As to CCCCGGCA, the binding signal was 0.148 E-score.

With CGTCCGTA, the binding signal is -0.122 E-score.

Turning to CGGGGACA, the binding signal stood at 0.125 E-score.

Consider ATGAACCC, for which the binding signal was 0.198 E-score.

In the case of CAGCAGCG, the binding signal was -0.0463 E-score.

On to GAGCTTTA, for which the binding signal was -0.224 E-score.

Regarding CATCAAGG, the binding signal is -0.205 E-score.

In the case of GGACACTA, the binding signal came to 0.358 E-score.

Consider GGCGCGTA, for which the binding signal was -0.145 E-score.

Consider ACTCAGAA, for which the binding signal was -0.188 E-score.

Turning to GTGGATCA, the binding signal came to 0.161 E-score.

Turning to CCCCCTAA, the binding signal was determined as 0.119 E-score.

On to TCTCGTAA, for which the binding signal is -0.133 E-score.

On to CAAGCACC, for which the binding signal was determined as 0.176 E-score.

Turning to ATGCGCCG, the binding signal is -0.124 E-score.

For ATGTTTTA, the binding signal is -0.14 E-score.

As for ATCCTGTG, the binding signal worked out at 0.105 E-score.

AAAGCGAC: the binding signal was 0.0713 E-score.

Consider AATGGGTA, for which the binding signal was -0.0439 E-score.

Take AGGATGAA: the binding signal is -0.158 E-score.

Take AGTTGACC: the binding signal stood at 0.0683 E-score.

Consider CATAATAG, for which the binding signal was -0.237 E-score.

With GGCGTCAC, the binding signal was found to be 0.145 E-score.

For the sequence CACCCTAA, the binding signal amounted to 0.326 E-score.

For AGAATCGA, the binding signal was -0.264 E-score.

Take CCTAAGTA: the binding signal was -0.0298 E-score.

As for ATGACGGG, the binding signal was -0.126 E-score.

Regarding CTCATTTC, the binding signal was -0.218 E-score.

With CAACGATG, the binding signal is -0.0102 E-score.

On to CTCAGCTC, for which the binding signal was -0.129 E-score.

As for CGAATCCG, the binding signal is 0.166 E-score.

Regarding CCGTCATA, the binding signal was -0.134 E-score.

Consider CAGCGCGA, for which the binding signal is -0.25 E-score.

For CGAGGCAA, the binding signal came to 0.186 E-score.

As for GGTGTGAA, the binding signal amounted to 0.427 E-score.

Turning to AATCGTAG, the binding signal was 0.0889 E-score.

Regarding ACCCTACG, the binding signal came to 0.164 E-score.

For the sequence ACCAAAAC, the binding signal was -0.0378 E-score.

For AAGCTAAG, the binding signal was -0.17 E-score.

With CACCTTCC, the binding signal amounted to 0.307 E-score.

In the case of CTAACACC, the binding signal was found to be 0.478 E-score.

As for ATCTGAGG, the binding signal amounted to 0.0165 E-score.

On to CTGACCCA, for which the binding signal was found to be 0.117 E-score.

With AGGTCTGC, the binding signal is -0.284 E-score.

In the case of ACTTTTTA, the binding signal was -0.168 E-score.

Regarding GCTTCATA, the binding signal is -0.0561 E-score.

As to GCTTGATA, the binding signal was -0.0757 E-score.

In the case of CTTGAAAG, the binding signal is -0.111 E-score.

As to CCATGACC, the binding signal is -0.00611 E-score.

With CTAGACTC, the binding signal was 0.0396 E-score.

As for AATTGAAC, the binding signal was -0.211 E-score.

As to GGACTAGA, the binding signal was -0.279 E-score.

Consider AAAATATT, for which the binding signal is -0.0776 E-score.

Regarding AGTCGTCG, the binding signal is -0.28 E-score.

Regarding CAAACATA, the binding signal was -0.3 E-score.

For AGCTCCCG, the binding signal was -0.111 E-score.

Turning to AGCCATAA, the binding signal was -0.208 E-score.

As to ATTCTTCC, the binding signal is -0.302 E-score.

As to CATGGTGC, the binding signal was found to be 0.123 E-score.

TCGTTTCA: the binding signal is -0.125 E-score.

For CTTAGGTA, the binding signal is -0.0285 E-score.

Take ATACAATG: the binding signal was -0.273 E-score.

For the sequence AATGCGGT, the binding signal came out at 0.081 E-score.

For the sequence CGTCTCCC, the binding signal is -0.017 E-score.

Take TCTTATAA: the binding signal amounted to 0.0214 E-score.

For AATAACGG, the binding signal was -0.188 E-score.

AGAGGAAC: the binding signal is -0.198 E-score.

With CGCAGGTA, the binding signal amounted to 0.134 E-score.

Turning to CCCGGCTC, the binding signal amounted to 0.0122 E-score.

Regarding ACCTAGCA, the binding signal came out at 0.0118 E-score.

GTGTGTCA: the binding signal worked out at 0.369 E-score.

In the case of CCAGGACA, the binding signal came to 0.12 E-score.

On to AACGCGCC, for which the binding signal is -0.091 E-score.

In the case of GACTAGGC, the binding signal was -0.183 E-score.

In the case of CTCGCTGA, the binding signal is -0.177 E-score.

For ACGAAAGT, the binding signal is -0.098 E-score.

ACTGGCCG: the binding signal was -0.269 E-score.

Take ATGTCTCC: the binding signal was -0.221 E-score.

On to GCAACTGC, for which the binding signal was -0.206 E-score.

For the sequence AGCGGGCC, the binding signal was -0.35 E-score.

For AGTCTTCG, the binding signal is -0.025 E-score.

Take CAGCAAAA: the binding signal was -0.148 E-score.

On to AGCATTTA, for which the binding signal is -0.113 E-score.

As for ATAACGAA, the binding signal is -0.311 E-score.

Take AGATCTTG: the binding signal is -0.133 E-score.

Consider GAACTGTC, for which the binding signal was -0.122 E-score.

Regarding ACTCTGCC, the binding signal is -0.0185 E-score.

As for GTGTCGGA, the binding signal amounted to 0.454 E-score.

Turning to GCATAGAA, the binding signal was -0.0713 E-score.

Turning to GACTGAGA, the binding signal was -0.19 E-score.

For the sequence GAAATCTA, the binding signal was 0.0624 E-score.

On to AATGTTAT, for which the binding signal is -0.27 E-score.

On to AACCTCCA, for which the binding signal was -0.152 E-score.

For the sequence ATGTGAAG, the binding signal was -0.147 E-score.

On to GAGGACGC, for which the binding signal is -0.0433 E-score.

As to ACCTGTCT, the binding signal was 0.00486 E-score.

Consider CGTGGGCA, for which the binding signal was -0.143 E-score.

For the sequence ACTGCTCT, the binding signal was -0.0781 E-score.

In the case of ATCAGCTA, the binding signal is -0.128 E-score.

Regarding ATTTGATC, the binding signal is -0.0537 E-score.

For the sequence CGAATAAG, the binding signal is -0.161 E-score.

For CCTACGCG, the binding signal came out at 0.104 E-score.

Turning to ACACTGGC, the binding signal was 0.379 E-score.

As for AAGAGTCG, the binding signal was 0.0359 E-score.

With GAAAAGGA, the binding signal is -0.191 E-score.

With AAACGAGA, the binding signal is -0.0816 E-score.

As to ACTGGCCC, the binding signal is -0.188 E-score.

On to ACACAAGC, for which the binding signal came out at 0.115 E-score.

In the case of CCAATAGA, the binding signal is -0.138 E-score.

Source of the values: PMC10668032.
